Results published in PubChem BioAssay AID1347165 (National Center for Advancing Translational Sciences (NCATS), 2019).
Among all 220,000 compounds or so, about 5,700 (2.6%) were called active. Inconclusive results, whose numbers are uncertain, are shown with a selection of clear calls. Calls follow the shape of the dose curve; as a rule, active = well fitted inhibition curve with a large enough effect; inconclusive = small, poorly fitted or top-dose-only effect; inactive = no such curve, though single readings can be large or run the other way. Potencies beside an inconclusive call are fits to weak or partial responses and may not hold up.

biological target: Lysine-specific demethylase 5B (Homo sapiens) (UniProt Q9UGL1); assay: Primary screen for KDM5B Histone Demethylases FDH-coupled qHTS; details: FDH-coupled NADH fluorescence (FDH is formaldehyde dehydrogenase); activity change, negative = inhibition: at 57.7 µM (top of the series) unless noted; also: nearly all actives have a fitted effect of over 70% in size; as to activity change, negative = inhibition: 0% is about no effect
UniProt Q9UGL1, sequence (Q9UGL1 whole entry, looked up, the tested form may be a part): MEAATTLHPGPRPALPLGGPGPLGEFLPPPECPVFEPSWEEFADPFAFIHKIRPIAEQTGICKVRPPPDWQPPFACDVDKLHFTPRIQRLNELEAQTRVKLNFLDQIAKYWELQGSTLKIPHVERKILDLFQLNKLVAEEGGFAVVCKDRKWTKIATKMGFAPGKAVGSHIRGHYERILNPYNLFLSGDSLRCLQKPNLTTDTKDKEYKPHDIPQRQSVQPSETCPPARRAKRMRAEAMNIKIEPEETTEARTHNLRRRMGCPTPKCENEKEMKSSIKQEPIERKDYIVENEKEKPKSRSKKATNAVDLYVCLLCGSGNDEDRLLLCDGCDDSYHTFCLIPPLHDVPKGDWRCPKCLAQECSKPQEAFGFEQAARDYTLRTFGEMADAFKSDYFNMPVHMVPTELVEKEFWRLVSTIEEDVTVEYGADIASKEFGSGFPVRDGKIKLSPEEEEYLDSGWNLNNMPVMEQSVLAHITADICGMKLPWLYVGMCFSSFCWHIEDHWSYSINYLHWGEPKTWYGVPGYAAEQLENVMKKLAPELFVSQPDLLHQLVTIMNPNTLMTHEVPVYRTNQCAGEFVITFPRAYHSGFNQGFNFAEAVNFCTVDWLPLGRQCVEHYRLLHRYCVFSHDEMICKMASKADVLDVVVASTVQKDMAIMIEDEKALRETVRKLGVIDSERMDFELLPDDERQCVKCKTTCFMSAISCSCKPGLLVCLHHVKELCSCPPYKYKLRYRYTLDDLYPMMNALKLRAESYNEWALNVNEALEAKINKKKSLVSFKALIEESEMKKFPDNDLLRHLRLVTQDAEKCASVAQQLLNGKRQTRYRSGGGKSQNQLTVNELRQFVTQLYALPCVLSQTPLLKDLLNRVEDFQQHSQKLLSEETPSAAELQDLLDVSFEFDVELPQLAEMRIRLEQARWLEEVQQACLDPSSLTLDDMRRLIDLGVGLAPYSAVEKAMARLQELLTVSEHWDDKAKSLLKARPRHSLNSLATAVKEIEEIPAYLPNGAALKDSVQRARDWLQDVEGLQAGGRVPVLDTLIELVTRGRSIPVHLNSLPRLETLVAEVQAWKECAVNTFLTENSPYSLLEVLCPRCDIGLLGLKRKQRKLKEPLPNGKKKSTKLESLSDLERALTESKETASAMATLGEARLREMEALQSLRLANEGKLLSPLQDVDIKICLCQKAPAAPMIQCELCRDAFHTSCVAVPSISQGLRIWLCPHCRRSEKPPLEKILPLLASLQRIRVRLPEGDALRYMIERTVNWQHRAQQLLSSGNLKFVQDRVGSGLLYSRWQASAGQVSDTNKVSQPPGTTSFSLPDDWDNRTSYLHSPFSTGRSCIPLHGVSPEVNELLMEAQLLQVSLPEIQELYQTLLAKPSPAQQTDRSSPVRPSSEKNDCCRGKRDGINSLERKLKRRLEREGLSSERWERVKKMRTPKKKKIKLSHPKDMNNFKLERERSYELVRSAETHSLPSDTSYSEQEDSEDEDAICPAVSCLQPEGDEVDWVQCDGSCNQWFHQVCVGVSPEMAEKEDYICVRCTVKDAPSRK
Outline: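 Inhibition is measured as reduced NADH fluorescence generation from FDH coupling to formaldehyde release. Truncated KDM5BΔAP at 200 nM final acts on H3K4me3 peptide (12.5 µM in substrate mix) in pH 7.5 HEPES buffer with Tween-20, 30 min, room temperature.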
Potency is read from the fitted curve at half-maximal effect; tags tell the direction and shape of the fitted curve.

Row | Structure (SMILES) | Potency | activity change, negative = inhibition
1 | CCOc1ccc(NC(=O)CCNc2c(C)nc3cnccn23)cc1 | active: 20 µM | –
2 | Cc1noc(-c2ccc(OC3CN(S(=O)(=O)c4cn(C)cn4)C3)cc2)n1 | – | inactive: 16.1%
3 | COCc1cc(=O)n(CC(=O)Nc2ccc(OC)cc2)c(N2CCOCC2)n1 | inconclusive: 20 µM [inhibitor, partial curve, poor fit] | –
4 | COc1ccc(-c2cc(C(=O)NCCc3ccc(OC)c(OC)c3)c3ccccc3n2)cc1 | inconclusive: 31.6 µM [inhibitor, partial curve, poor fit] | –
5 | O=C(c1ncn[nH]1)N1C[C@@H](COCC2CC2)[C@H](c2ccccn2)C1 | – | inactive: 14.6%
6 | O=C(c1cc(-c2ccc(Br)cc2)on1)N1CCOCC1 | – | inactive: 23.8%
7 | CSc1ccc(-c2nc(CSCC(=O)NCc3cccs3)c(C)o2)cc1 | inconclusive: 20 µM [inhibitor, single point] | –
8 | Cc1cnn(Cc2cc(C(=O)N3CCCCCC3c3nnc(-c4ccccc4)o3)no2)c1 (stereo not given) | inconclusive: 17.8 µM [inhibitor, partial curve] | –
9 | CCc1nc2sc3c(=O)[nH]cnc3c2c2c1CSC(C)(C)C2 | inconclusive: 39.8 µM [inhibitor, single point] | –
10 | Cc1cc(N2CCOCC2)n2nc(C(F)(F)F)c(-c3ccccc3)c2n1 | inconclusive: 31.6 µM [inhibitor, partial curve, poor fit] | –
11 | CC(=O)Nc1ccc(I)c(C)n1 | – | inactive: 18%
12 | CC(C)(Oc1nn(CCOc2ccccc2)c2ccccc12)C(=O)NCc1ccncc1 | – | inactive: -1.43% [at 86.2 µM]
13 | CC(C)(C)C1CCC2(CC1)NC(=O)N(CC(=O)Nc1ccc3c(c1)OCCO3)C2=O (stereo not given) | – | inactive: 3.57%
14 | Clc1ccc(Nc2ncc(-c3cccnc3)c3c2OCC3)cc1 | active: 31.6 µM | –
15 | Cc1ccccc1N1Cc2c(ncnc2N2CCOCC2)N(C)CC1=O | – | inactive: 18.3%
16 | CC(C)C[C@@H]1N[C@H](C(=O)NCCN2CCOCC2)Cc2cn(Cc3ccccn3)c3cccc1c23 | – | inactive: 2.21%
17 | CCc1ccc(C2C(C(=O)N3CCCCC3)=C(C)NC3=C2C(=O)CC(C)(C)C3)cc1 (stereo not given) | inconclusive: 22.4 µM [inhibitor, partial curve, poor fit] | –
18 | O=C(Nc1ccc(F)c(F)c1)N1CCc2c(c3ccccc3n2CC2CC2)C1 | active: 22.4 µM | –
19 | COc1ccc(-c2ccc(CCC(=O)O)n2CC(=O)Nc2cccc(Cl)c2C)cc1 | inconclusive: 17.8 µM [inhibitor, partial curve, poor fit] | –
20 | Cn1cc(C(=O)NCCc2ccccc2)c(=O)c2cc(S(=O)(=O)N3CCCCCC3)ccc21 | inconclusive: 2.24 µM [inhibitor, full curve, poor fit] | –
